# Read counts are not given, so values of variants with three or more changes are uncertain.
# B1: OR4K15 (parent)
# chain: GUUAACGGUCAUAGGCCAUGGAAACUAGGAGCACCAUUUCGCUGCCAGUGAAGAAAUGAACAAAGAAAAUCUGGGCCAGGCAGGCAUCAAAAGAAAUAGUCUUGCGCUCAACCAGAAAGUCUGUAAUCAUUUUAAGGGUA
# Variants of: B1
# Assay: self-cleavage, relative activity (ratio to wild type); higher = more cleavage; in vitro, sequencing; the parent is a self-cleaving ribozyme
row,Variant,self-cleavage
1,U57C A89G U100C,2.33
2,A24G A52G A68G,1.25
3,U2C A98G A118G U139C,0.21
4,A4G A18U U87C U100C A129G,0.95
5,U2G G21A G75C A96G G115A,0.06
6,A11G A33G U127C U139C,0.16
7,A54G A94G G138A,0.73
8,A56G A82G A117G A118G,0.06
9,A66G U87C U120C,1.53
10,A51U A56G A60G U97A U102C A111G A117G,0
11,C77U A89G U122C,1.88
12,U3C A51U A63G U133C A140G,1.15
13,U72C A89U U132A,0.11
14,A11U G15U U39A A55G A56G A64G,0.87
15,A54G A69G U97A U108C A118G,0.01
16,A55G A111G A116G,0.05
17,A27U A78G A118G,0.33
18,A63U A66U A86C A114U,0.1
19,A54U G83A A92G,0.44
20,A18G A94G A96G A117G,1.6
21,A47C A78G U120C,0.15

row,Variant,self-cleavage
1,A23G A91G A92G U122C,0.91
2,A95U A116U U131C,0.17
3,A11U A67G U102C U122C,0.88
4,C34U A36U A47G A126G,0.26
5,U9C U57C U72A G73U A90G A126G,0.24
6,U39C G44A A63G,1.45
7,U12C G75C A114C,0.02
8,A11U U57C A62G,0.65
9,A63G A89G U122C,1.14
10,A68G A92G A117G A135U,1.91
11,A30G A89G U120C,0.53
12,U12A U38A C46U A52G,0.48
13,U12G A66C A91G,2.07
14,A5G A86G A111G U120C,0.09
15,U9A U43A A82G A86G,0.28
16,U39A A54G U120C,1.18
17,U87A A96G G136U,1.88
18,A18G A30G U139C,0.89
19,A89U A94G U130A,1.46
20,U26G C76A U122C,0.12
21,A30U A60G U108C,0.03

row,Variant,self-cleavage
1,A51G U100C A126G,1.04
2,A52G A55G A62G U72C,0.36
3,A30G U87C A91C U108C,0.05
4,A96G A125G A134U,0.75
5,C46U A91G A96G,0.46
6,A18U A54G A63G U103A U132C,0.39
7,A24G A54G A91G A134G,1.11
8,A23G U39C A82G A96G,0.25
9,U2C A24U U39C A51G A60G A95G A135C,1.55
10,A13G U37C A54G G75U,0.38
11,U87C A96G G104A,0.03
12,A11G A68G U127C,0.13
13,G14A A94G U124C,0.6
14,A52G A56G A94G,0.52
15,A11U G104A A140G,0.01
16,U43A U72C A140U,0.18
17,U19C A63G A117G,1.26
18,A27G U108C U124A,0.03
19,A62G A95G U108C A114G U120C U131C,0
20,U2C A54G A78G A118G,0.2
21,A51G A54G U108C,0.03

row,Variant,self-cleavage
1,U19A A52G A94U,1.46
2,U19C A56G U103A A140G,0.34
3,A36G A78U A92G U103C U130C,0.03
4,C42A A52G A117G,2.01
5,A78G U87C A117G G136U,0.11
6,A11G A51G A64U U72C A111U,0.03
7,U19A A24G A27G,1.05
8,A59G A69G C101U,0.16
9,C32A A51U U124C,0.77
10,U103C A111U U122A,0.07
11,U2C A55G A69G A92G U132C,1.08
12,A23G U57G U70C A98G,0.16
13,A62G A68G U122C,0.83
14,U2C U26C U70G A92G A118U U122A U127C,0.47
15,U26C A68C A89U,1.47
16,A5G G14A A30G C101U,0.4
17,U19A A91G A96G A135U,1.17
18,A62G A64G A89U A90G A126G U130C,0.52
19,G28A A64G A67G,0.7
20,A36G A64G U72A,0.26
21,A33G A66G U87C A114U,0.03
